Assay results taken from patent EP1598418A1, “STABILISED COMPOSITION FOR FLUORIMETRIC, COLORIMETRIC OR CHEMOLUMINESCENT ASSAYS, KITS CONTAINING SAME AND PRODUCTION METHOD THEREOF” (BIOTOOLS BIOTECHNOLOGICAL & MEDICAL LABORATORIES, S.A., priority 2003, dated 2004).

System: TaqMan probes
Assay: Real-time amplification with desiccated, stabilised reaction mixture with TaqMan probes after storage (Example 2)
Parameters: key: Ng, negative results; +, weak positive, under 50% of the activity of the fresh mixture; ++, positive with 50-90% of the activity of the fresh mixture; +++, positive with activity level not less than 90% of the activity of the fresh mixture
Settings: vs fresh mixture
Procedure: To test the efficiency of the TaqMan probes included in desiccated and stabilised reaction mixtures, reaction mixtures were prepared for amplification of the same region described for example 1, using the same reagents there described. […] In addition, 1 µl in a concentration of 10mM was added of the primers A1 (^5' -[…]-^3') and 1 microlitre of primer A2 (^5'-[…]-^3') at a concentration of 10µM. Also to each phial was added 1 microlitre of the hydrolysis probe A5 (TaqMan probe: ^5'-FAM […] TAAFTAC-TAMRA-^3') at a concentration of 10mM, containing a FAM group at end 5'and a TAMRA group at locus 3'.
To do so, 50 ng of DNA of each problem sample was added to each tube to a final volume of 20 microlitres. […] In parallel, in order to check the evolution of the activity of the desiccated tubes, DNA samples were amplified using a fresh mixture in the same amplification conditions.
The result of the amplification reaction was analysed in every case by inspecting the fluorescence curve and determining the crossing point, following the instructions of the equipment software, for each reaction tube both fresh and desiccated and stabilised. […] The samples of patients infected with P. falciparum gave positive results in every case, while patients infected with other species gave negative results in every case.

Compound	activity of stabilising mixtures (conserved at T 25 °C)	activity of stabilising mixtures (conserved at T 45 °C)
OC[C@H]1O[C@@](CO)(O[C@H]2O[C@H](CO)[C@@H](O)[C@H](O)[C@H]2O)[C@@H](O)[C@@H]1O [Sucrose]	Ng	Ng
OC[C@@H](O)[C@@H](O)[C@H](O)[C@@H](O)CO [Sorbitol]	Ng	Ng
OC[C@H]1O[C@@](CO)(O[C@H]2O[C@H](CO)[C@@H](O)[C@H](O)[C@H]2O)[C@@H](O[C@H]2O[C@H](CO)[C@@H](O)[C@H](O)[C@H]2O)[C@@H]1O [Melezitose]	Ng	Ng
OCC(O)CO [Glycerol]	Ng	Ng
NCCCC[C@H](N)C(=O)O [Lysine]	Ng	Ng
OC[C@H]1O[C@H](O[C@H]2O[C@H](CO)[C@@H](O)[C@H](O)[C@H]2O)[C@H](O)[C@@H](O)[C@@H]1O [Trehalose]	–	Ng
OC[C@H]1O[C@H](OC[C@H]2O[C@H](O[C@]3(CO)O[C@H](CO)[C@@H](O)[C@@H]3O)[C@H](O)[C@@H](O)[C@@H]2O)[C@H](O)[C@@H](O)[C@H]1O [Rafinose]	Ng	Ng
